Measurements published in patent US20250214977A1, “STAT6 INHIBITORS AND USES THEREOF” (Kymera Therapeutics, Inc., priority 2024, published 2025).

The compounds below were run against T1, biotinylated truncated STAT6 (123-632)-avi (Homo sapiens, UniProt P42226) (assay: Homogenous Time-Resolved Fluorescence (HTRF) binding assay). Conditions: 0.15 nM biotinylated truncated STAT6 (123-632)-avi, 20 nM fluorescein-labeled probe, 30 minutes room temperature.
T1 sequence (P42226 123-632 limits assumed): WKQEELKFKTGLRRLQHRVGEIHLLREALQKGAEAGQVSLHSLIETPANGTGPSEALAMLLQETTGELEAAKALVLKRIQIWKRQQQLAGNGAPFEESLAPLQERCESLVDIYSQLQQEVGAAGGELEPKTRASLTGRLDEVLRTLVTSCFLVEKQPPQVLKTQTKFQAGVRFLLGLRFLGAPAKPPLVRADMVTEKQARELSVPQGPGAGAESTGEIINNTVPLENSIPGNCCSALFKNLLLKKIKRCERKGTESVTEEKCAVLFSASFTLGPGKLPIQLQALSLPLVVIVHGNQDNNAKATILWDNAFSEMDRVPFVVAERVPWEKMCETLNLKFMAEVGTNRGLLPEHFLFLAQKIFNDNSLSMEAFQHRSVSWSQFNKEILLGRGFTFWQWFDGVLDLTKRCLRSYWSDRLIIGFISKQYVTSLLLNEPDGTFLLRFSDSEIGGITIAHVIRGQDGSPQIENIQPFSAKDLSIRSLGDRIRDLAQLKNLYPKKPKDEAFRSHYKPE
COc1ccccc1-c1cc(C2=CCCN(C(=O)CCn3ccnn3)C2)c(F)c2[nH]c(C(=O)N3CCCC3c3ccc(C)cc3)cc12 (stereo not shown) [Example I-1549] was tested, and the IC50 was 1 to 10 µM. COc1ccccc1-c1cc(C2=CCCN(C(=O)CCn3ccnn3)C2)c(F)c2[nH]c(C(=O)N3CC(C(F)F)C3)cc12 [Example I-1550] was tested, and the IC50 was 0.1 to 1 µM. COc1ccccc1-c1cc(C2=CCCN(C(=O)CCn3ccnn3)C2)c(F)c2[nH]c(C(=O)N3CCN(C(=O)c4ccccc4)CC3)cc12 [Example I-1551] was tested, and the IC50 was < 0.1 µM. COc1ccccc1-c1cc(C2=CCCN(C(=O)CCn3ccnn3)C2)c(F)c2[nH]c(C(=O)N3CCc4nc(C)[nH]c4C3)cc12 [Example I-1552] was tested, and the IC50 was < 0.1 µM. With CN(C)C(=O)c1cc2cc(C3=CCCN(C(=O)CCn4ccnn4)C3)cc(/C=C/c3ccc(Cl)cc3)c2o1 [Example I-1553] the IC50 was 0.1 to 1 µM. Work on O=C(CCn1ccnn1)N1CCC=C(c2ccc3oc(C(=O)N4CC(O)C4)cc3c2)C1 [Example I-1554] yielded an IC50 of 1 to 10 µM. CN(C(=O)c1cc2cc(C3=CCCN(C(=O)CCn4ccnn4)C3)ccc2o1)c1ccccn1 [Example I-1555] gave an IC50 of 0.1 to 1 µM. COc1ccccc1-c1cc(C2=CCCN(C(=O)CCn3ccnn3)C2)c(F)c2cc(C(C)(C)O)oc12 [Example I-1556] gave an IC50 of 1 to 10 µM. COc1ccccc1-c1cc(C2=CCCN(c3ccccn3)C2)c(F)c2[nH]c(C(=O)N(C)C)cc12 [Example I-1557] was tested, and the IC50 was 1 to 10 µM. For COc1ccccc1-c1cc(C2=CCCN(C(=O)CCn3ccnn3)C2)c(F)c2[nH]c(C(=O)N(C)CC#CCCO)cc12 [Example I-1558], the IC50 was < 0.1 µM. With CC(=O)N1CCC=C(c2cc(-c3ccccc3OC(F)(F)F)c3cc(C(=O)N(C)C)[nH]c3c2F)C1 [Example I-1559] the IC50 was 0.1 to 1 µM. In the case of COc1ccccc1-c1cc(C2=CCCN(C(=O)CCn3ccnn3)C2)c(F)c2[nH]c(C(=O)N3CCC(c4ccncc4)C3)cc12 (stereo not shown) [Example I-1560], the IC50 is reported as < 0.1 µM. CC(=O)N1CCC=C(c2cc(-c3nc4ccccc4s3)c3cc(C(=O)N(C)C)[nH]c3c2F)C1 [Example I-1561] showed an IC50 of 0.1 to 1 µM. For CC(=O)N1CCC=C(c2cc(-c3nc4ccccc4[nH]3)c3cc(C(=O)N(C)C)[nH]c3c2F)C1 [Example I-1562], the IC50 was 0.1 to 1 µM. In the case of CNc1ccccc1-c1cc(C2=CCCN(C(C)=O)C2)c(F)c2[nH]c(C(=O)N(C)C)cc12 [Example I-1563], the IC50 is reported as < 0.1 µM. In the case of CC(=O)N1CCC=C(c2cc(-c3ccccc3C(F)(F)F)c3cc(C(=O)N(C)C)[nH]c3c2F)C1 [Example I-1564], the IC50 is reported as 0.1 to 1 µM. CC(=O)N1CCC=C(c2cc(-c3ccccc3C#N)c3cc(C(=O)N(C)C)[nH]c3c2F)C1 [Example I-1565] was tested, and the IC50 was < 0.1 µM. Compound COc1ccccc1-c1cc(C2=CCCN(C(=O)CCn3ccnn3)C2)c(F)c2[nH]c(C(=O)N3CCCC(O)C3C)cc12 (stereo not shown) [Example I-1566] has an IC50 of 0.1 to 1 µM. For COc1ccccc1-c1cc(C2=CCCN(C(=O)CCn3ccnn3)C2)c(F)c2[nH]c(C(=O)N3CNC(=O)NC3)cc12 [Example I-1569], the IC50 was < 0.1 µM. COc1ccccc1-c1cc(C2=CCCN(C(=O)CCn3ccnn3)C2)c(F)c2[nH]c(C(=O)N(CCO)CCc3ccccc3)cc12 [Example I-1570] gave an IC50 of 1 to 10 µM. With CN(C)C(=O)c1cc2cc(C3=CCCN(C(=O)CCn4ccnn4)C3)cc(Oc3ccccc3)c2o1 [Example I-1571] the IC50 was < 0.1 µM. For COc1c[nH]c(=O)cc1-c1cc(C2=CCCN(C(=O)CCn3ccnn3)C2)c(F)c2[nH]c(C(=O)N(C)C)cc12 [Example I-1574], the IC50 was < 0.1 µM. With COc1ccccc1-c1cc(C(=O)N(C)C)cc2cc(C3=CCCN(C(=O)CCn4ccnn4)C3)[nH]c12 [Example I-1576] the IC50 was < 0.1 µM. In the case of CC(=O)N1CCC=C(c2cc(-c3ccnc4ccccc34)c3cc(C(=O)N(C)C)[nH]c3c2F)C1 [Example I-1578], the IC50 is reported as < 0.1 µM. Work on COc1ccc(-c2cc(C3=CCCN(C(C)=O)C3)c(F)c3[nH]c(C(=O)N(C)C)cc23)cc1 [Example I-1579] yielded an IC50 of 0.1 to 1 µM. CC(=O)N1CCC=C(c2cc(-c3cc4ccccc4n3C)c3cc(C(=O)N(C)C)[nH]c3c2F)C1 [Example I-1580] showed an IC50 of 0.1 to 1 µM. For CC(=O)N1CCC=C(c2cc(-c3ccccc3OC(F)F)c3cc(C(=O)N(C)C)[nH]c3c2F)C1 [Example I-1581], the IC50 was < 0.1 µM. In the case of CCc1ccccc1-c1cc(C2=CCCN(C(C)=O)C2)c(F)c2[nH]c(C(=O)N(C)C)cc12 [Example I-1582], the IC50 is reported as 0.1 to 1 µM. Work on CNCC1CCCN(C(=O)c2cc3c(-c4ccccc4OC)cc(C4=CCCN(C(=O)CCn5ccnn5)C4)c(F)c3[nH]2)C1 (stereo not shown) [Example I-1584] yielded an IC50 of 0.1 to 1 µM. Cc1c(C(=O)N(C)C)[nH]c2c(F)c(C3=CCCN(C(=O)CCn4ccnn4)C3)ccc12 [Example I-1586] was tested, and the IC50 was < 0.1 µM. CN(C)C(=O)c1[nH]c2c(F)c(C3=CCCN(C(=O)CCn4ccnn4)C3)ccc2c1-c1ccccc1 [Example I-1587] showed an IC50 of 0.1 to 1 µM. COc1ccccc1-c1cc(C2CCCN(C(=O)CCn3ccnn3)C2)c(F)c2[nH]c(C(=O)N(C)C)cc12 (stereo not shown) [Example I-1588] gave an IC50 of 1 to 10 µM. With COc1cccc(-c2cc(C3=CCCN(C(C)=O)C3)c(F)c3[nH]c(C(=O)N(C)C)cc23)c1 [Example I-1589] the IC50 was 0.1 to 1 µM. For CC(=O)N1CCC=C(c2cc(-c3ccccc3)c3cc(C(=O)N(C)C)[nH]c3c2F)C1 [Example I-1590], the IC50 was 0.1 to 1 µM. For CC(=O)N1CCC=C(c2cc(-c3cc4ccccc4[nH]3)c3cc(C(=O)N(C)C)[nH]c3c2F)C1 [Example I-1591], the IC50 was 0.1 to 1 µM. In the case of COc1ccccc1-c1cc(C2=CCCN(C(=O)CCn3ccnn3)C2)c(F)c2[nH]c(C(=O)N3CCC(N(C)C(C)=O)C3)cc12 (stereo not shown) [Example I-1592], the IC50 is reported as 1 to 10 µM. COc1ccccc1-c1cc(C2=CCCN(C(=O)CCn3ccnn3)C2)c(F)c2[nH]c(C(=O)N3CCC(c4cccc(Cl)c4Cl)C3)cc12 (stereo not shown) [Example I-1593] was tested, and the IC50 was 0.1 to 1 µM. COc1ccccc1-c1cc(C2=CCCN(C(=O)CCn3ccnn3)C2)c(F)c2[nH]c(C(=O)N3CCC[C@H]3c3ccccn3)cc12 [Example I-1594] showed an IC50 of 0.1 to 1 µM. Work on COc1ccccc1-c1cc(C2=CCCN(C(=O)CCn3ccnn3)C2)c(F)c2[nH]c(C(=O)N3CC(C)CC3CO)cc12 (stereo not shown) [Example I-1595] yielded an IC50 of 0.1 to 1 µM. COc1ccccc1-c1cc(C2=CCCN(C(=O)CCn3ccnn3)C2)c(F)c2[nH]c(C(=O)N3CCC[C@H](C(=O)N4CCCCC4)C3)cc12 [Example I-1596] showed an IC50 of 0.1 to 1 µM. COc1ccccc1-c1cc(C2=CCCN(C(=O)CCn3ccnn3)C2)c(F)c2[nH]c(C(=O)N(CCO)Cc3cccc(Br)c3)cc12 [Example I-1597] was tested, and the IC50 was 1 to 10 µM. For Cc1ccccc1Oc1cc(C2=CCCN(C(=O)CCn3ccnn3)C2)c(F)c2[nH]c(C(=O)N(C)C)cc12 [Example I-1598], the IC50 was < 0.1 µM. In the case of O=C1CN(C(=O)c2cc3cc(C4=CCCN(C(=O)CCn5ccnn5)C4)ccc3o2)c2ccccc2N1 [Example I-1600], the IC50 is reported as 0.1 to 1 µM. O=C(CCn1ccnn1)N1CCC=C(c2ccc3oc(C(=O)N4CCCC4)cc3c2)C1 [Example I-1601] showed an IC50 of 1 to 10 µM. In the case of CC1CN(C(=O)c2cc3cc(C4=CCCN(C(=O)CCn5ccnn5)C4)ccc3o2)CC(=O)N1 (stereo not shown) [Example I-1602], the IC50 is reported as 1 to 10 µM. O=C(NCc1ccccc1CN1CCOCC1)c1cc2cc(C3=CCCN(C(=O)CCn4ccnn4)C3)ccc2o1 [Example I-1603] showed an IC50 of 0.1 to 1 µM. In the case of O=C(CCn1ccnn1)N1CCC=C(c2ccc3oc(C(=O)N4CCCC5CCCCC54)cc3c2)C1 (stereo not shown) [Example I-1604], the IC50 is reported as 1 to 10 µM. Compound O=C(CCn1ccnn1)N1CCC=C(c2ccc3oc(C(=O)N4CCC45CCCCC5)cc3c2)C1 [Example I-1605] has an IC50 of 1 to 10 µM. O=C(CCn1ccnn1)N1CCC=C(c2ccc3oc(C(=O)N4CC5CCC4CC5)cc3c2)C1 [Example I-1606] showed an IC50 of 1 to 10 µM. With CN(C)C(=O)c1cc2cc(C3=CCCN(C(=O)CCn4ccnn4)C3)cc(-c3ccc(-n4ccnn4)cc3)c2o1 [Example I-1607] the IC50 was < 0.1 µM. CN(C)C(=O)c1cc2cc(C3=CCCN(C(=O)CCn4ccnn4)C3)cc(-c3cnn(-c4ccccc4)c3)c2o1 [Example I-1608] gave an IC50 of 0.1 to 1 µM. In the case of CN(C)C(=O)c1cc2cc(C3=CCCN(C(=O)CCn4ccnn4)C3)cc(-c3ccc(CO)cc3)c2o1 [Example I-1609], the IC50 is reported as < 0.1 µM. In the case of O=C(CCn1ccnn1)N1CCC=C(c2ccc3oc(C(=O)N4CCCC45CC5)cc3c2)C1 [Example I-1610], the IC50 is reported as 1 to 10 µM. CN(C(=O)c1cc2cc(C3=CCCN(C(=O)CCn4ccnn4)C3)ccc2o1)C1CC1 [Example I-1612] showed an IC50 of 0.1 to 1 µM. In the case of O=C(CCn1ccnn1)N1CCC=C(c2ccc3oc(C(=O)N4CCn5ncnc5C4)cc3c2)C1 [Example I-1613], the IC50 is reported as 0.1 to 1 µM. With CN(C)C(=O)c1cc2cc(C3=CCCN(C(=O)CCn4ccnn4)C3)cc(-c3ccc(C(=O)N4CCCC4)cc3)c2o1 [Example I-1614] the IC50 was < 0.1 µM. For COc1ccccc1-c1cc(C2=CCCN(C(=O)CCn3ccnn3)C2)c(F)c2[nH]c(C(=O)N3CCCC3CO)cc12 (stereo not shown) [Example I-1615], the IC50 was 0.1 to 1 µM. With COc1ccccc1-c1cc(C2=CCCN(C(=O)CCn3ccnn3)C2)c(F)c2[nH]c(C(=O)N3CCN(CCCO)CC3)cc12 [Example I-1616] the IC50 was < 0.1 µM. CCn1ncc(CN(CCO)C(=O)c2cc3c(-c4ccccc4OC)cc(C4=CCCN(C(=O)CCn5ccnn5)C4)c(F)c3[nH]2)c1C [Example I-1617] gave an IC50 of 1 to 10 µM. With COc1ccccc1-c1cc(C2=CCCN(C(=O)CCn3ccnn3)C2)c(F)c2[nH]c(C(=O)N(C)C[C@H](O)COc3cccc4ccccc34)cc12 [Example I-1618] the IC50 was 1 to 10 µM. In the case of COc1ccccc1-c1cc(C2=CCCN(C(=O)CCn3ccnn3)C2)c(F)c2[nH]c(C(=O)N(CCO)c3ccc4ccccc4n3)cc12 [Example I-1619], the IC50 is reported as 1 to 10 µM.
